PubChem BioAssay AID488969 (Vanderbilt High Throughput Screening Facility, 2010)
The full ranking holds about 110,000 compounds; the median of “z-score” is about -0.1, and the highest 2% start at about 2. The list shows a part of the results.

What follows are compounds tested against Metabotropic glutamate receptor 8 (Rattus norvegicus) (UniProt P70579) (assay: mGluR8 Gi/Go-coupled signaling modulation – cell-based, rat, thallium flux, HTS, primary screen (AID 488969)). Conditions: HEK293 rat mGluR8, GIRK (G protein-gated inwardly rectifying potassium channel) thallium flux, FluoZin2; at 10 µM; stronger effect = higher value; submaximal glutamate (EC20) added with thallium.
Chain of UniProt P70579 (P70579 whole entry, looked up): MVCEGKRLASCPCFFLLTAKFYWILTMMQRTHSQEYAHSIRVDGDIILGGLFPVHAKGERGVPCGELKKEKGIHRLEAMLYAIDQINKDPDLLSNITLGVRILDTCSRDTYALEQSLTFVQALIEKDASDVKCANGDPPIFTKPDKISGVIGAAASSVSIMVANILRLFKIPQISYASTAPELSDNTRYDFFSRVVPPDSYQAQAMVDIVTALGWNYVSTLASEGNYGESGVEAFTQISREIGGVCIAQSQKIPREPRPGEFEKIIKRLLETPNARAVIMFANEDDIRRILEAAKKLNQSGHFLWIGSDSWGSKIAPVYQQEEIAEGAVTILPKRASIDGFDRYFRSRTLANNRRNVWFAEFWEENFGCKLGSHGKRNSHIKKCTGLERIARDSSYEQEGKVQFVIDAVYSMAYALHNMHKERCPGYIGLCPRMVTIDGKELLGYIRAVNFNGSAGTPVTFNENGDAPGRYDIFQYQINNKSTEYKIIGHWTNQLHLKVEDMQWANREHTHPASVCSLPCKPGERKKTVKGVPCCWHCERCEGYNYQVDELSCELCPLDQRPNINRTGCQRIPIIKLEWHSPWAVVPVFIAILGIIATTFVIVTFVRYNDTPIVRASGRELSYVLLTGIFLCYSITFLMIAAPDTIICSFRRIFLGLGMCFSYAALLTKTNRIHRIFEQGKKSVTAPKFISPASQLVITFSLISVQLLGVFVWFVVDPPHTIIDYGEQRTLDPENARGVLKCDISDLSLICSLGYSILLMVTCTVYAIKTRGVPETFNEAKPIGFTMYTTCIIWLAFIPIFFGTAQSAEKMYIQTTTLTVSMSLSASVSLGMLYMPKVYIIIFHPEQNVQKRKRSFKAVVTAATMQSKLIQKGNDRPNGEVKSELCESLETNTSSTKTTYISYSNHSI

Row | SMILES | z-score
1 | CCC(=O)N1c2ccc(S(=O)(=O)CCC(=O)NCCC3=CCCCC3)cc2CC1C (stereo unspecified) | -0.134
2 | Cc1cc(C)nc(NC(=O)Cc2ccc([N+](=O)[O-])cc2)c1 | -0.159
3 | CCc1ccc(CCC(=O)Nc2ccc(C(C)=O)cc2)o1 | 0.203
4 | CCOC(=O)CC1(CC(=O)OCC)NC(=O)c2c(C)sc(C(=O)OCC)c2N1 | -0.0329
5 | CCOc1nc(N=C(N)N)nc2c(C)cccc12 | -0.494
6 | O=C(c1ccccc1)N1CCCOC1c1ccccc1 (stereo unspecified) | -0.0715
7 | COc1cccc(C2/C(=C(\O)c3ccc4c(c3)OCO4)C(=O)C(=O)N2CCN(C)C)c1OC (stereo unspecified) | 0.384
8 | CCCCn1nc2cc(C(=O)NCc3ccccc3OC)ccc2c1OCC | -0.532
9 | COc1ccc(Cc2nnc(SC)[nH]c2=O)cc1 | -0.128
10 | O=C(c1cc2ccccc2oc1=O)N1CCCC1 | -0.118
11 | CCOc1ccc(S(=O)(=O)N/N=C(\C)c2ccc(Cl)c(Cl)c2Cl)cc1 | -0.157
12 | N#CC1=C(N)n2c(s/c(=C\c3ccco3)c2=O)=C(C#N)C1c1ccco1 (stereo unspecified) | -0.104
13 | O=c1oc2ccccc2cc1-c1csc(Nc2nc3ccc(F)cc3s2)n1 | -0.209
14 | COc1ccc(C(C(=O)Nc2ccc3c(c2)OCO3)N(C)C(=O)Cc2c[nH]c3ccccc23)cc1 (stereo unspecified) | -0.863
15 | CCOc1ccc(C(=O)NC(=S)Nc2ccc(NC(=O)CC)cc2)cc1[N+](=O)[O-] | -0.224
16 | COc1ccc(NC(=O)CN(C)CC(=O)Nc2ccccc2SC)cc1 | -2.3
17 | COc1ccc(Cn2c(CCC(=O)O)nc3cccnc32)cc1 | -0.257
18 | O=C1c2ccccc2C(=O)N1CCCCSc1nnnn1-c1ccccc1 | -0.385
19 | O=C(CCNS(=O)(=O)c1ccc(Cl)cc1)NCc1cccnc1 | 0.448

Row | SMILES | z-score
20 | CCC(C(=O)Nc1ccccc1C(=O)N1CCCC1)N1C(=O)c2ccccc2C1=O (stereo unspecified) | -0.213
21 | CCOC(=O)c1c(N)sc2c(OCC)c(Br)ccc12 | 0.151
22 | COC(=O)/C(=C/c1c[nH]c2ccccc12)[N+](=O)[O-] | -0.494
23 | OC(COc1cc(Cl)c(Cl)cc1Cl)CN1CCN(c2ncccn2)CC1 (stereo unspecified) | -0.154
24 | CCCCNCc1ccc(SC)cc1 | 0.0485
25 | CCN(Cc1ccccc1)S(=O)(=O)c1ccc(S(=O)(=O)N2CCN(C)CC2)cc1 | -0.106
26 | CCC1=NN=C(c2ccc(F)cc2)C(c2c[nH]c3ccccc23)N1O (stereo unspecified) | 0.437
27 | CCCn1c2c(c(O)c(C(=O)Nc3ccc(OCC)cc3)c1=O)CCCC2 | -1.03
28 | Cc1ccc2nc(N(CCCN(C)C)C(=O)c3cc4ccccc4oc3=O)sc2c1 | 0.339
29 | CCOC(=O)c1cnc(SCC(=O)Nc2ccccc2N2CCOCC2)nc1N | -0.0952
30 | Cc1cc(NC(=O)CCCSc2nc(-c3ccco3)cc(C(F)(F)F)n2)no1 | 0.331
31 | COc1ccc(S(=O)(=O)N2CCCC2C(=O)Nc2nccs2)cc1 (stereo unspecified) | -0.428
32 | CC(=O)c1ccc(NC(=O)C(Cc2ccccc2)NC(=O)c2ccco2)cc1 (stereo unspecified) | -0.126
33 | CCOc1cc(/C=N/O)ccc1OCc1ccc(C)cc1 | 0.0276
34 | Clc1ccc(-c2nnc(CCc3ccccc3)o2)c(Cl)c1 | -0.318
35 | Cc1ccc(C)n1-n1c(C)nc2scc(-c3ccccc3)c2c1=O | -0.882
36 | CCOC(=O)C(C)Sc1nc2c(c(-c3cccs3)c1C#N)CCC2 (stereo unspecified) | -0.421
37 | CCCCC(O)(CCN1CCOCC1)c1ccc(Cl)cc1 (stereo unspecified) | -0.334
38 | Cc1ccc(CON=C2CCN(c3ncc(C(F)(F)F)cc3Cl)CC2)cc1 | 0.0323

Row | SMILES | z-score
39 | Brc1ccc(-c2csc(NNC3=NCCCCC3)n2)cc1 | -0.435
40 | Cc1ccccc1NC(=S)N(C)C1(c2ccccc2Cl)CCCCC1=O (stereo unspecified) | -0.321
41 | COc1ccccc1N1CCN(C(=O)CSc2nc(C)cc(=O)[nH]2)CC1 | -0.206
42 | CCCn1nc(-c2ccccc2)c2nc3ccccc3nc21 | 0.0864
43 | Cc1ccc(-c2nc3sc4c(c3c(=O)n2N)CC(C)(C)OC4)cc1 | 0.25
44 | S=c1[nH]nc(-c2ccc3ccccc3n2)n1-c1ccc(Cl)cc1 | 0.934
45 | CCOc1ccccc1NC(=O)COC(=O)CNS(=O)(=O)c1ccc(C)cc1 | -0.2
46 | O=C(NCc1ccncc1)Nc1ccccc1 | -0.0117
47 | Cc1ccc(C)c(OCCn2cc(/C=C(\C#N)C(=O)NCc3cccs3)c3ccccc32)c1 | -0.0431
48 | CCCCN1C(=O)C(NC(C)=O)c2cc(Br)ccc21 (stereo unspecified) | 0.326
49 | CCOC(=O)c1sc(NC(=O)C(CC)Sc2nnc3c4ccccc4n(C(C)C)c3n2)nc1C (stereo unspecified) | -0.215
50 | Nc1c(S(=O)(=O)c2ccccc2)cnc2c(-c3ccc(F)cc3)cnn12 | -0.173
51 | CN(C)/C=N/c1cnc(C(=O)c2ccc(Cl)cc2)n1C | 0.659
52 | CCOc1ccc(N(CC(=O)OC)S(=O)(=O)c2c(C)noc2C)cc1 | -0.249
53 | C=CCn1c(COc2ccc(OC)cc2)nnc1SCn1nnc2ccccc2c1=O | 0.126
54 | Cc1cc(C)cc(-n2c(C)cc(/C=N/NC(=O)CN(c3c(C)cccc3C)S(C)(=O)=O)c2C)c1 | -0.0981
55 | Cc1ccc(S(=O)(=O)N2CCN(S(=O)(=O)N3CCOCC3)CC2)cc1 | -0.0174
56 | COCCNC(=S)N/N=C/c1ccc(OCc2ccc(C(=O)OC)cc2)cc1 | -0.179
